# PMC4336329 (PLoS ONE, 2015)
# The whole screen tested about 310,000 compounds, of which about 14,000 (4.5%) showed an effect of 50% or more. The effect is printed as a negative number. The list shows a part of the results.
# Molecular target: human ether-à-go-go-related gene (hERG) potassium channel (human, UniProt Q12809)
# Test: primary screen, population patch clamp on CHO cells stably expressing hERG
# 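Further: peak tail current of the secondary pulse compared with the same well before compound.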
# Chain of human ether-à-go-go-related gene (hERG) potassium channel (Q12809 whole entry, looked up): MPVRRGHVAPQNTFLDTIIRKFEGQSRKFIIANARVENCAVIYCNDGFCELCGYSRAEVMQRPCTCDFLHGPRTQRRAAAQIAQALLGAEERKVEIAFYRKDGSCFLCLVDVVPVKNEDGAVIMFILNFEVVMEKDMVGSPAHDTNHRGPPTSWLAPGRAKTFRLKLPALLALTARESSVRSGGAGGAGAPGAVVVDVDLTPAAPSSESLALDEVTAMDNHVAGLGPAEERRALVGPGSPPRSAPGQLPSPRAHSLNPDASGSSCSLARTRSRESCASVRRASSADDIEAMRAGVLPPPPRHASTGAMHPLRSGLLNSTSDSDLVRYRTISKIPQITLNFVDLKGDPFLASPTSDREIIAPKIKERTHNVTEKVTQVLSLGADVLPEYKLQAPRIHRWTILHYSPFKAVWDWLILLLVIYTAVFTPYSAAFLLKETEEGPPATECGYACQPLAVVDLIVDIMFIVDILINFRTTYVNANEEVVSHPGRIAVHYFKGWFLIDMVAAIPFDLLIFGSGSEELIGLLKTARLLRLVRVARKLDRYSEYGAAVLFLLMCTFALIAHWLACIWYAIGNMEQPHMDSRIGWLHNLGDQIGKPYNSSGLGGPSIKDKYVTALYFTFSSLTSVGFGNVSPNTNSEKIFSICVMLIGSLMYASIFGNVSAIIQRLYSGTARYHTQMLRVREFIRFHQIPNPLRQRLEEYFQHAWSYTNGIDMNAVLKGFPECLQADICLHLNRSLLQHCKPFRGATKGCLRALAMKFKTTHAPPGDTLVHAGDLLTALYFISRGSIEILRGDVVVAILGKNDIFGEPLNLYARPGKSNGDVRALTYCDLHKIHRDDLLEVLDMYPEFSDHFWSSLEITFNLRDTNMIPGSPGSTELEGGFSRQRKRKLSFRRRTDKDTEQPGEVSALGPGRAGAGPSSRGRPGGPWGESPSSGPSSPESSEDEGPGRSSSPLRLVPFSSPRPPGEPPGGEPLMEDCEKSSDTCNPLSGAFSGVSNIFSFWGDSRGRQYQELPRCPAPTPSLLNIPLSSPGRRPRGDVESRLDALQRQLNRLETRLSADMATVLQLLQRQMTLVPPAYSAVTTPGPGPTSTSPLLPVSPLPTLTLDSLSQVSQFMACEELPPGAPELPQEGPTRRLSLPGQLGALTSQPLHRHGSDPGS
row,Structure (SMILES),"hERG current change (%, negative = inhibition) at 10uM"
1,COc1ccc2c(c1)OCC1=C2CCC2(C)C(=O)CC=C12 (centres unmarked),7.52%
2,CCOC(=O)C(=NCC1CCCO1)NNc1cc(Cl)ccc1Cl (centres unmarked),3.08%
3,CCC(C)(C)NC(=O)/C=C/c1cc(OC)c(OC)c(S(=O)(=O)N2CCc3ccccc32)c1,4.99%
4,CC(=O)Oc1ccc2nc(/C=C/c3ccc(C=O)cc3)oc(=O)c2c1,12.7%
5,Cn1cccc1/C=N/n1c(-c2ccco2)n[nH]c1=S,18.5%
6,O=[N+]([O-])c1ccccc1S(=O)(=O)N1CCN(c2ccc(F)cc2)CC1,-37.5%
7,CN1CCC(OC(=O)Cc2ccc(Cl)cc2)CC1.Cl,-11%
8,N#CCc1c(C#N)c(N)nc(N2CCN(S(=O)(=O)c3ccccc3F)CC2)c1C#N,-9.75%
9,CC(=O)c1ccc(NC(=O)CN2CCN(c3ccccc3)CC2)cc1.Cl,-13.6%
10,COc1ccc(C(=O)CN2CCN(c3ncccn3)CC2)cc1.O=C(O)C(=O)O,5.13%
11,Cc1ccc(S(=O)(=O)N(CC(=O)NCc2ccncc2)Cc2ccccc2F)cc1,-78.6%
12,O=C(CC1Sc2ncnn2C1=O)Nc1ccc(Cl)cc1 (centres unmarked),6.43%
13,CC1CCCN(C/C(O)=C(\C#N)c2nc3ccccc3[nH]2)C1 (centres unmarked),-27.8%
14,Nc1c(Cl)ncnc1N1CCOCC1,6.38%
15,COc1ccc(-c2nn(-c3ccccc3)cc2C(=O)NC2CCC(C)CC2)cc1 (centres unmarked),19.9%
16,Cc1ccc(S(=O)(=O)CCc2nnc(NC(=O)c3cnccn3)s2)cc1,8.7%
17,CC1CCCCC1NC(=O)COC(=O)COc1ccccc1Cl (centres unmarked),15.1%
18,COc1ccc(N2CCN(C(=O)CCC(=O)N3CC(C)Oc4ccc(C)cc43)CC2)cc1 (centres unmarked),-41%
19,O=C(c1cccc([N+](=O)[O-])c1)c1ccc2c(c1)C(=O)N(c1c[nH]c(=O)[nH]c1=O)C2=O,13.4%
20,COc1cc(-c2nc(CN3CCN(CC(C)C)C(=O)[C@@H]3C)c(C)o2)ccc1F,-14.2%
21,CCCCn1c(N)c(N(CC(C)C)C(=O)CCCSc2nncs2)c(=O)[nH]c1=O,7.91%
22,O=C(Nc1sc2c(c1C(=O)N1CCOCC1)CCCCC2)c1cccnc1,17%
23,CC1CCCC(C)N1C(=O)COC(=O)Cc1c[nH]c2ccccc12 (centres unmarked),7.87%

row,Structure (SMILES),"hERG current change (%, negative = inhibition) at 10uM"
1,CCOC(=O)CNC(=O)C1CCCc2c1[nH]c1ccc(Cl)cc21 (centres unmarked),-2.99%
2,COCCCNC(=O)CCCn1c(=O)c2ccccc2n(CC(=O)Nc2c(C)cccc2C)c1=O,11.3%
3,CCN(CC(=O)NCc1ccc(Cl)cc1)C(=O)c1ccc(S(=O)(=O)N(C)C)cc1,-33.2%
4,COc1cc(=O)[nH]c(SC(C)C(=O)Nc2nc3c(s2)CCCC3)n1 (centres unmarked),7.6%
5,O=C(CCC1CCCC1)Nc1cc(C(F)(F)F)ccc1N1CCOCC1,-13.7%
6,C=CCn1c(O)c(C(CC)=NCCCO)c(=O)[nH]c1=O,12%
7,CCCn1c(-c2cccs2)nc2ccccc21,-26.6%
8,CCn1c(=O)[nH]c2cc(C(=O)Nc3cc(C)cc(C)c3)ccc2c1=O,13.1%
9,COC(=O)[C@H](C)NC(=O)Nc1cc(OC)ccc1OC,-8.76%
10,O=C1C2C3C=CC(C3)C2C(=O)N1Cc1ccc(CN2C(=O)C3C4C=CC(C4)C3C2=O)cc1 (centres unmarked),-7.36%
11,O=[N+]([O-])c1cc(Cl)cc(/C=N\Nc2ccccn2)c1O,10.5%
12,Cc1[nH]nc2c1C(c1ccc(F)cc1)C1=C(CC(C)(C)CC1=O)N2 (centres unmarked),5.9%
13,O=C(O)c1ccccc1C(=O)Nc1n[nH]c(=S)s1,20.2%
14,COc1ccc(OC)c(NC(=O)Nc2cccc(Cn3cccn3)c2)c1,-20.7%
15,CN(C)Cc1c(-c2ccc(Cl)cc2)nc2ccccn12,0.0702%
16,COC(=O)c1cn(N(C)c2ncc(C(F)(F)F)cc2Cl)c(=O)c2ccccc12,3.91%
17,COc1ccc(S(=O)(=O)Nc2ccccc2C)cc1,0.614%
18,Cc1ccnc(Nc2nc3ccccc3o2)n1,1.42%
19,Cc1nc2ccccc2c(=O)n1/N=C/c1c(O)ccc2oc3c(c12)CCCC3,15.5%
20,CCOc1ncccc1C(=O)NCc1cccc(OC)c1,-12.8%
21,COc1ccc(OC)c(-c2csc(N3CCC(c4ccccc4)CC3)n2)c1,19.4%
22,O=C(Nc1nc(-c2cccs2)cs1)c1cccc(S(=O)(=O)N2CCCCC2)c1,6.17%
23,Cc1cc(C(=O)NC2CCN(Cc3ccccc3)CC2)n[nH]1,-19.8%

row,Structure (SMILES),"hERG current change (%, negative = inhibition) at 10uM"
1,COc1ccc(OCc2cc(C(=O)N3CCN(CC(=O)N(C)C)CC3)no2)c(Cl)c1,-13.4%
2,CCOC(=O)C(C)Oc1cccc2c(=O)n(CC(=O)NCc3ccc(F)cc3)ccc12 (centres unmarked),-4.43%
3,CC(=O)c1ccc(N2CCN(C(=S)Nc3ccc(Cl)c(Cl)c3)CC2)cc1,6.83%
4,O=C(NCc1ccco1)c1ccc(Cl)nc1,12.4%
5,COc1ccc(CN2C(=O)CN(C3CCCCCC3)C(=O)C2c2ccc(OC)c(OC)c2)cc1 (centres unmarked),-42.2%
6,CSc1ncc(CN2CCCC(C(=O)Nc3ccc(-c4ccco4)cc3)C2)cn1 (centres unmarked),11.1%
7,C=CCn1c(Cc2cccs2)nnc1SCC(=O)c1ccc2ccccc2c1,-8.42%
8,Cc1cccc(NC(=O)CN2C(=O)NC(Cc3ccccc3)C2=O)c1 (centres unmarked),0.714%
9,CCOC(=O)c1ccc(N2N=C(C)/C(=C/C=C/c3ccco3)C2=O)cc1,5.01%
10,O=C(Nc1ccccc1Cl)c1ccc(S(=O)(=O)NCC2CCCO2)cc1 (centres unmarked),-8.48%
11,O=C(CCC1CCCCC1)Nc1c2c(nn1-c1ccc(F)cc1)CS(=O)(=O)C2,-36.9%
12,O=C1c2ccccc2S(=O)(=O)c2cc(C(=O)N(c3ccccn3)c3ccccn3)ccc21,16.3%
13,COc1ccc(NC2(c3ccc(Cl)cc3)C(=O)c3ccccc3C2=O)cc1,-5.85%
14,O=C(O)c1sc2cc(C(F)(F)F)cnc2c1-c1ccccn1,13.2%
15,O=C(Nc1ccc2nc3n(c(=O)c2c1)CCCC3)c1cccnc1Cl,12.6%
16,Cc1ccc(C(=O)OC(C)C(=O)c2cc(C)c(C)cc2C)o1 (centres unmarked),-5.34%
17,COc1ccc(S(=O)(=O)n2cnc3ccccc32)cc1OC,12.4%
18,Cc1nc2c(c(=O)[nH]1)C(c1ccc([N+](=O)[O-])cc1)c1c(c3ccccc3oc1=O)O2 (centres unmarked),-20.4%
19,Cc1cc(C)n(-c2cccc(Cl)c2)c(=O)c1C#N,23.5%
20,O=C(O)c1ccc(OS(=O)(=O)c2cccc(C(F)(F)F)c2)cc1,6.34%
21,Br.O=C(O)c1cscn1,4.28%
22,CCOCCCn1c(SCc2nc3ccccc3s2)nc2ccccc2c1=O,-2.07%
23,COCCN(C(=O)CSCC(=O)Nc1ccc(C)cc1)c1c(N)n(CC(C)C)c(=O)[nH]c1=O,17.6%

row,Structure (SMILES),"hERG current change (%, negative = inhibition) at 10uM"
1,CCCn1c(N)c(C(=O)CSc2nnc(C3CC3)n2-c2ccccc2)c(=O)[nH]c1=O,-2.34%
2,CCOC(=O)c1sc(=S)n(-c2ccc(C)cc2)c1N,17.8%
3,COc1ccc(OCC2NCCc3cc(OC)c(OC)cc32)cc1 (centres unmarked),-8.93%
4,COc1ccc(C)cc1S(=O)(=O)N1CCN(S(=O)(=O)c2cc(C)ccc2OC)CC1,-1.43%
5,O=C1c2[nH]nc(-c3ccccc3O)c2C(c2cccc(Cl)c2)N1Cc1ccco1 (centres unmarked),-3.79%
6,CC12CCC(=O)C=C1CCC1C2CCC2(C)C1CCC2(O)C(=O)CO (centres unmarked),3.96%
7,N#C/C(=C(/O)COC(=O)c1ccc2c(c1)OCCO2)c1nc2ccccc2[nH]1,7.5%
8,Cc1cc(C)nc(Oc2ccc([N+](=O)[O-])cc2)n1,22.6%
9,O=S(=O)(c1ccccc1)N1N=C(c2cccs2)CC1c1ccc(F)cc1 (centres unmarked),-1.4%
10,CCn1nc(CCC(=O)O)c2ccccc2c1=O,6.13%
11,COCCn1c(=O)c2cc3c(=O)n(CCOC)c(=O)c3cc2c1=O,-4.83%
12,O=C(NCC1OCCc2ccccc21)c1cc(COc2c(F)cccc2F)on1 (centres unmarked),-14.2%
13,Cc1oc(-c2ccccc2F)nc1CS(=O)(=O)CC(=O)N1CCOCC1,15.7%
14,COC(=O)N/N=C/c1cccc([N+](=O)[O-])c1,2.39%
15,O=C(O)CC1(CC(=O)Nc2cc(F)ccc2Cl)CCCCC1,2.36%
16,Cc1nnc(SCC(=O)NCc2ccc3c(c2)OCO3)s1,21.1%
17,COc1ccc(S(=O)(=O)NNC(=O)C(=O)NNc2ccccn2)cc1,6.3%
18,N#CCSc1nc2ccccc2c(=O)n1CCCC(=O)NCc1ccco1,-33.7%
19,Cc1ccnc(SC2CC(=O)N(c3ccc(Cl)cc3)C2=O)n1 (centres unmarked),19.2%
20,Cc1ccc(NC2Sc3ccccc3NC2=O)cc1 (centres unmarked),10.7%
